These results are taken from PMC12136788.

Some of the results follow.

First the molecules themselves.
T1: UNK ZnF1-6 (called full-length) (human, UniProt Q9C0B0 30-357)
T1 sequence: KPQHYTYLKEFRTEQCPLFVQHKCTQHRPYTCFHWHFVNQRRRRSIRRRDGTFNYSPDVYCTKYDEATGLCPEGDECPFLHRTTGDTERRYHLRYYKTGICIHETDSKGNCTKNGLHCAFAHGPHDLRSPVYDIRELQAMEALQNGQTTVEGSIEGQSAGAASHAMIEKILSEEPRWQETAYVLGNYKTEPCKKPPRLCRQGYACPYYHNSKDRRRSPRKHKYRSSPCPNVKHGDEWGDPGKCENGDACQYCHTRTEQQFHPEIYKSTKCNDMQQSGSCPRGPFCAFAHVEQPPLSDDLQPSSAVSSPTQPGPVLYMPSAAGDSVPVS

B1: chr12:89642165:89642281:-|CDS|ENSG00000070961|unk|FALSE|bound_elsewhere (ssRNA)
RNA: GGGAGUUCUACAGUCCGACGAUCGCCAAAAACCUUUCUUCAAUUAGUAUGGGAAGCAUUACAAGAUGUCACUUUAAUUAUAUUAGAAAUUGCAGCCAUAGUAUCAUUGGGCCUUUCUUUUUAUCAGCCUCCAGAAGGGGAUAACAACAGAGGAUUGAGCAUCA
B2: ENSG00000070961:be:win_5551|3pUTR|ENSG00000070961|bound_else_gene|NA|bound_elsewhere_windowed (ssRNA)
RNA: GGGAGUUCUACAGUCCGACGAUCAAUUGUACAUUUAUUCAUCAGGUAUUUAUAGUGAAUCAUACUGUAAAAAAGAGGUAGCAUGAUAUGCUGGAAAGCAUAUUAGACUAGGAGUCAAGACCUGGUUUCUAGUCUUGGUUUUGCCAACAGAGGAUUGAGCAUCA
B3: chr12:3284029:3284272:+|3pUTR|ENSG00000011105|msi1|total|mutant (ssRNA)
RNA: GGGAGUUCUACAGUCCGACGAUCCAUGUGGGUAUUCCCACAACAGGUUCUGCACACCCCAGUUAUUUCACAGACAUUCCUGCCCGAAACUGUCAGACAAAUACCUCUCCCGUUCGGAUGCUGCUCACUUUCCCCCUUGCUUCUCAACAGAGGAUUGAGCAUCA
B4: chr1:54031757:54031935:-|3pUTR|ENSG00000116209|msi1|FALSE|unique (ssRNA)
RNA: GGGAGUUCUACAGUCCGACGAUCUUAGCUAUGAGCUGAUCAUUGCUCCUUCUCACCUCCUGCCAUGAUACUGUCAGUUACCUUAGUUAACAAGCUGAAUAUUUAGUAGAAAUGAUGCUUCUGCUCAGGAAUGGCCCACAAAUCCAACAGAGGAUUGAGCAUCA
B5: chr8:94436494:94436868:-|CDS|ENSG00000265817|control|control|control (ssRNA)
RNA: GGGAGUUCUACAGUCCGACGAUCAAUAGUAGAAAAGAAUAGAUGUUGGGAUAUCAUAGCAGUUAACUAUAAUGCAAUUGGAGUAGACCGCCCUCCUCGAACAGCACAGGGCCUACGCACCCUUUAUAAAAGGCUCAAAGAAUACAACAGAGGAUUGAGCAUCA
B6: ENSG00000135632:stop:overlap|stop_codon|ENSG00000135632|stop_codon|NA|stop_codon (ssRNA)
RNA: GGGAGUUCUACAGUCCGACGAUCAACGGCCCCUGGUGGCUGCACAGUUUCUCUGGAAUGCACUUUAUCGCUACCGAGGGCACUAGAGAAGGCAGAGGAGAAUGCCCAGAGGCUGACCGGGAAACCAGGCCAGGUUCUGCCUCACAACAGAGGAUUGAGCAUCA
B7: chr7:29923496:29923595:-|3pUTR|ENSG00000136193|msi1_unk|FALSE|overlapping (ssRNA)
RNA: GGGAGUUCUACAGUCCGACGAUCUCACAGUGCCGAGUUGGCGGGAAAAGCAAAUUCUUUUGAAGUCUUAGUCUUUCCCUCAGUAGCGGUUUCUUUCAGGUUAACAAGAGGCAUUUGUGCACACACACAGGGCUCUUGUGUGUGCAACAGAGGAUUGAGCAUCA
B8: chr3:7579146:7579247:+|CDS|ENSG00000196277|unk|total|mutant (ssRNA)
RNA: GGGAGUUCUACAGUCCGACGAUCGCCAGAGGGGUUCUCAAGUGUGACAUUACAGAUCUCCAAAUCAUUUGCUCCUUGGGAUACCGCAUUCUUCUCAUGGUCACAUGUACUGUGUAUGCCAUCAAGACUCGGGGUGUACCCGAGCAACAGAGGAUUGAGCAUCA
B9: chr10:119917856:119917957:+|CDS|ENSG00000107651|unk|FALSE|unique (ssRNA)
RNA: GGGAGUUCUACAGUCCGACGAUCUAAGAAAAUCACUUUGCCAAGUAUUGGUCGAUUUCGUCACUUUACCAAUGAAACUUUGCUAGAUAUUUUAUUUUAUAACAGCCCCACCUACUGUCAGACAAUUGUGGAAAAAGUAGGAAUCAACAGAGGAUUGAGCAUCA
B10: chr7:100033925:100034026:+|CDS|ENSG00000106261|msi1|FALSE|bound_elsewhere (ssRNA)
RNA: GGGAGUUCUACAGUCCGACGAUCCAGAGCUCGGACCUCACCAAGCAUCAGAGAAUUCACACGGGGGAGAAACCCUAUGAAUGUAGUGAAUGUGGAAAAGCUUUCAACCGAAACUCAUACCUGAUUUUGCAUCGGAGAAUUCACCAACAGAGGAUUGAGCAUCA
B11: chr14:23275577:23277187:-|CDS|ENSG00000290292|control|control|control (ssRNA)
RNA: GGGAGUUCUACAGUCCGACGAUCGCAGGUGCUGGAUUGGUUUGACUCUCGAUUACCUCAGCCAGCUGAGGUGGUAGUUUGUCUAGAUGAAGAAGAGGAAGAGGAGGAGGAAGAACUGCCAGAAGAUGAUGAGGAAGAGGAGGACAACAGAGGAUUGAGCAUCA
B12: chr2:16549458:16552935:-|three_prime_utr|ENSG00000197872|control|control|control (ssRNA)
RNA: GGGAGUUCUACAGUCCGACGAUCUUGCUACUGGAGUCCUUUAACAACAUCUAUAACGAUAAAAAAUUCCUAAUUGUUUGUGGUAGUAUUUUAAUUCUAGAUGUGUUAUCUCUCUGGGAAGUAUAGUUUAUAGAAACACAAAAUCAACAGAGGAUUGAGCAUCA
B13: chr1:193096648:193096749:-|CDS|ENSG00000023572|msi1_unk|total|mutant (ssRNA)
RNA: GGGAGUUCUACAGUCCGACGAUCCAACAGGUUCCAAGAAUAUUUGUCAAUGGUACUUUUAUUGGAGGUGCAACUGACACUCACCGGCUUCACAAAGAAGGAAAAUUGCUCCCACCCGUUCAUCAGUGUUAUUUAAAAAAAAGUCAACAGAGGAUUGAGCAUCA
B14: chr6:11183298:11183399:-|3pUTR|ENSG00000111859|msi1|total|mutant (ssRNA)
RNA: GGGAGUUCUACAGUCCGACGAUCACAUUUCACAUUUUUAAAACCAAAUGUUCAAUCUGUAUUACUCUUUGCCGUCUUGUAUGCCGAGGCUAUUUUUAAAUCAUUAAAUUUUCCGAUCUCUGUUUUCACCGCCACUGGGUUUUCCAACAGAGGAUUGAGCAUCA
B15: chr7:38725943:38726055:-|3pUTR|ENSG00000006715|unk|FALSE|unique (ssRNA)
RNA: GGGAGUUCUACAGUCCGACGAUCGAAAUUUUGGGGUCCAUAGUGAAUAUUUUGUUAUUUAUUUGUUUGGCUCAUUCUUUAUAUAGUAAUGGAAACAUAAGUCUAGGAGUUAGAAAUGAAUUUUUUAGACCUUAGUAAAACCAUCAACAGAGGAUUGAGCAUCA
B16: chr5:95604386:95604487:+|3pUTR|ENSG00000164291|msi1|total|mutant (ssRNA)
RNA: GGGAGUUCUACAGUCCGACGAUCCCUGCCAUCCAGUUCCCCCUCCAAGAAGCAAGUACCGAAACCACCUGCUUACGCAUUUUCCGAGAUUGGCCACAAAUUUAUAAACAAAUGUAUAUAUUCCUUUCCCCCUACACAAACGGUCAACAGAGGAUUGAGCAUCA
B17: chr9:19286831:19286940:+|CDS|ENSG00000137145|unk|total|mutant (ssRNA)
RNA: GGGAGUUCUACAGUCCGACGAUCAUUCCAGGAUGUGAAGUGAUCCCCGCCACACCCUAUGGUCGCUGUGCCAAUGUCAACAACCGUUCAACUACUUCACAAAGAAUCUUUAUCACUUAUCGAAGGGCUCCUCCAGUUCGACCCCAACAGAGGAUUGAGCAUCA
B18: chrX:135156539:135157311:-|three_prime_utr|ENSG00000169551|control|control|control (ssRNA)
RNA: GGGAGUUCUACAGUCCGACGAUCUUUAUUCUGUUUAUCUUUCCUUUUAUGAGCAGUAAAGGGGCUGGUUUAACUUAAAAGGUUAGCUUAGUAAGCCUAAAUAGUAUUUUAUAUAUGACUUUUCUGGCAAAUCUAAUUGAGACACAACAGAGGAUUGAGCAUCA
B19: chr16:46799225:46799326:-|3pUTR|ENSG00000155330|unk|total|mutant (ssRNA)
RNA: GGGAGUUCUACAGUCCGACGAUCUUACAUUUGGAAGUACAUGUAUAUAUGUUUAUAUAUUUUUAUUCUCAGGAUCUAUUUUCCCGGGAACUAUUUUUUUAAAUUAUUCUUUUGUGCUGCCUUAACCCAUUUAUUACCGUUUGACAACAGAGGAUUGAGCAUCA
B20: chr4:165277806:165277983:-|three_prime_utr|ENSG00000229894|control|control|control (ssRNA)
RNA: GGGAGUUCUACAGUCCGACGAUCCUUUUUACAUAAUGAAAGAACAACCCAGCAAUUGUCUCUUAAUGCGAUGACACUAUUCAUAGACUUUGAUUUUAUUUAUAAGCCACUUGCUGCGUGACCCUCCAAGUAGACCUGUGGCUUCAACAGAGGAUUGAGCAUCA
B21: chr1:151249111:151249212:+|3pUTR|ENSG00000143398|unk|FALSE|unique (ssRNA)
RNA: GGGAGUUCUACAGUCCGACGAUCGCAGAUUGUUGAAUUCCUGUUCUAUCCCUUCUCUAUCCCACCCUGCCUUGAUAAUAUGUUAGCCCAUACCCCAAAUAACUGUCUAUAUUAGACACCCCCAGCCAGUUUCUGGCUGCCUGUCAACAGAGGAUUGAGCAUCA
B22: ENSG00000124766:be:win_601|CDS|ENSG00000124766|bound_else_gene|NA|bound_elsewhere_windowed (ssRNA)
RNA: GGGAGUUCUACAGUCCGACGAUCUCCAAAGUGGCGGGCGGCGCGGGCGGUGGGGUUAGCAAACCGCACGCCAAGCUCAUCCUGGCAGGCGGCGGCGGCGGCGGGAAAGCAGCGGCUGCCGCCGCCGCCUCCUUCGCCGCCGAACAACAGAGGAUUGAGCAUCA

The assay deals with T1, UNK ZnF1-6 (called full-length). Put plainly: nsRBNS (natural sequence RNA bind-n-seq); RBNS binding buffer (assumed for nsRBNS): 25 mM Tris pH 7.5, 150 mM KCl, 3 mM MgCl2, 0.01% Triton X-100, 500 ug/ml BSA, 20 U/ml SUPERase-In, 4 C; UNK is unkempt and MSI1 is Musashi-1; names of the RNAs are library labels; protein concentration not given here; high values mean tight binding.
B1 had a binding signal of 3.35 enrichment R.

As for B2, the binding signal came out at 0.3 enrichment R.

For B3, the binding signal was 1.05 enrichment R.

The molecule B4 returned a binding signal of 0.756 enrichment R.

Turning to B5, the binding signal came out at 3.51 enrichment R.

In turn, B6 displayed a binding signal of 0.714 enrichment R.

In turn, B7 showed a binding signal of 0.396 enrichment R.

For B8, the binding signal came to 0.501 enrichment R.

The molecule B9 had a binding signal of 2.36 enrichment R.

In turn, B10 gave a binding signal of 0.607 enrichment R.

For B11, the binding signal worked out at 1.85 enrichment R.

On to B12, for which the binding signal came out at 4.45 enrichment R.

B13 showed a binding signal of 0.398 enrichment R.

In turn, B14 returned a binding signal of 1.08 enrichment R.

Molecule B15 came in with a binding signal of 7.17 enrichment R.

The molecule B16 had a binding signal of 1.51 enrichment R.

On to B17, for which the binding signal came out at 0.7 enrichment R.

Regarding B18, the binding signal stood at 1.68 enrichment R.

Consider B19, for which the binding signal was 1.87 enrichment R.

The molecule B20 returned a binding signal of 1.27 enrichment R.

The molecule B21 yielded a binding signal of 2.26 enrichment R.

As for B22, the binding signal was determined as 0.449 enrichment R.
